Results from PubChem BioAssay AID2676 (National Center for Advancing Translational Sciences (NCATS), 2010).
Out of some 370,000 compounds screened, about 1,100 (0.3%) were called active. Inconclusive results, whose numbers are uncertain, are shown with a selection of clear calls. Calls follow the shape of the dose curve; as a rule, active = well fitted activation curve with a large enough effect; inconclusive = small, poorly fitted or top-dose-only effect; inactive = flat fitted curve, though single readings scatter. Where the call is inconclusive, the potency comes from a doubtful curve fit.

biological target: Relaxin receptor 1 (Homo sapiens) (UniProt Q9HBX9); test: qHTS Assay for Agonists of the Relaxin Receptor RXFP1; conditions: HEK293T-RXFP1 cAMP TR-FRET, 30 min; series mostly up to 57.5 µM; also: nearly all actives have a fitted effect of over 60% in size
Chain of UniProt Q9HBX9 (Q9HBX9 whole entry, looked up): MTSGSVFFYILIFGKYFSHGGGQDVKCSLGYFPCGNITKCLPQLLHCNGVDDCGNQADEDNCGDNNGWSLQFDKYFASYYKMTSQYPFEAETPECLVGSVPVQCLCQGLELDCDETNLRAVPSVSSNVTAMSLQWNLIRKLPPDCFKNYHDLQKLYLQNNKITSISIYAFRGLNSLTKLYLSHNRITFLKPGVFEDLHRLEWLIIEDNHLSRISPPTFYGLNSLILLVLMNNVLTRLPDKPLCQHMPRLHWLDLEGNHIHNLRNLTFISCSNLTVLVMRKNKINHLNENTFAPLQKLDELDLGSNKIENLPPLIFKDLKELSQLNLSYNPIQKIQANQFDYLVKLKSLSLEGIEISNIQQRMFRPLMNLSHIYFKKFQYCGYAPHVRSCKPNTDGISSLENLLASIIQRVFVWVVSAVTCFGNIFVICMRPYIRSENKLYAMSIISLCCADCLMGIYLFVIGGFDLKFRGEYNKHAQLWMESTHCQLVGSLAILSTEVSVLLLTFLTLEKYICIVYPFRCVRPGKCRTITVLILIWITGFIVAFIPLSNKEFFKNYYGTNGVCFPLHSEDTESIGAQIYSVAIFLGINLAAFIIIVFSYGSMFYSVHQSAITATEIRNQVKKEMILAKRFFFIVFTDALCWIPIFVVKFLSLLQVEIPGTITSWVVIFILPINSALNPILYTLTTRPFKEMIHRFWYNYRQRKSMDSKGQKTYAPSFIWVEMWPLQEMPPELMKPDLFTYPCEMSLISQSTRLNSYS
In short: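 Agonist response is measured as cAMP accumulation in an RXFP1-transfected HEK293T line under PDE4 inhibition. Values are scaled between buffer-only and 29 nM porcine relaxin, and EC50s come from standard Hill equation fits.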
Potency is read from the fitted curve at half-maximal effect; tags tell the direction and shape of the fitted curve.

| SMILES | Potency |
| --- | --- |
| Cc1nc(-c2ccccc2)nc2[nH]c(-c3ccccc3)cc(=O)c12 | inconclusive: 39.8 µM [activator, single point] |
| O=c1c2ccccc2sn1-c1cc(S(=O)(=O)N2CCOCC2)ccc1N1CCOCC1 | inactive |
| CN(C)CCCNc1ncnc2scc(-c3ccccc3)c12 | inconclusive: 22.4 µM [activator, partial curve] |
| Cc1cccc(NC(=O)CSc2nc(C)c(CC(=O)c3ccc(Br)cc3)c(C)c2C#N)c1C | inconclusive: 28.2 µM [activator, partial curve] |
| Cc1[nH]c2ccccc2c1C(=O)COC(=O)c1ccc2c(=O)n3c(nc2c1)CCC3 | inconclusive: 28.2 µM [activator, single point] |
| COc1cccc(C2/C(=C(\O)c3ccc4c(c3)OCCO4)C(=O)C(=O)N2c2nnc(C)s2)c1 (stereo not drawn) | inconclusive: 15.8 µM [activator, partial curve] |
| CSc1cc(-c2ccc(Cl)cc2)[nH]c(=O)c1C#N | inconclusive: 14.1 µM [activator, partial curve] |
| Cc1ccccc1C(=O)Nc1nnc2n1CCS2 | inconclusive: 39.8 µM [activator, single point] |
| Cc1ccc(C(=O)c2cn(CC(=O)NCc3ccccc3Cl)c3nc(C)ccc3c2=O)cc1 | inconclusive: 31.6 µM [activator, single point] |
| CN(Cc1ccccc1)C(=O)c1cn(C)c2ccc(S(=O)(=O)N3CCCCC3)cc2c1=O | inactive |
| COc1ccccc1Nc1ncnc2c1cnn2-c1cccc(C)c1 | inactive |
| CC(C)(C)NS(=O)(=O)c1ccc2nc(NC(=O)c3ccc(N4C(=O)CCC4=O)cc3)sc2c1 | inconclusive: 39.8 µM [activator, single point] |
| CC1(C)Cc2c(sc3c2c(N)nc(=S)n3Cc2ccc(Br)cc2)CO1 | inconclusive: 39.8 µM [activator, single point] |
| O=C(Oc1ccc(C(=S)N2CCOCC2)cc1)c1ccc([N+](=O)[O-])cc1[N+](=O)[O-] | inactive |
| CCN(CC)S(=O)(=O)c1ccc(N2CCOCC2)c(NC(=O)c2cc([N+](=O)[O-])ccc2Cl)c1 | inconclusive: 28.2 µM [activator, partial curve] |
| O=C(NCCc1ccc(Cl)cc1)c1cnc2sc(N3CCOCC3)nn2c1=O | inconclusive: 39.8 µM [activator, single point] |
| O=C(NCc1ccc(Cl)cc1)c1cnc2sc(N3CCOCC3)nn2c1=O | inconclusive: 35.5 µM [activator, single point] |
| Cn1c(=O)c(Sc2ccccc2)c(O)c2ccccc21 | inconclusive: 39.8 µM [activator, single point] |
| CCC(Sc1nnc2c(n1)[nH]c1ccccc12)C(=O)Nc1nnc(C(C)C)s1 (stereo not drawn) | inconclusive: 14.1 µM [activator, partial curve] |
| COC(=O)c1ccc(C2/C(=C(/O)c3ccc4c(c3)CC(C)O4)C(=O)C(=O)N2Cc2cccnc2)cc1 (stereo not drawn) | inconclusive: 25.1 µM [activator, partial curve] |
| CC(=O)c1nc(N2C(=O)C3CC=C(C)CC3C2=O)sc1C (stereo not drawn) | inconclusive: 22.4 µM [activator, partial curve] |
| CCN(CC)CCn1c(SCC(=O)Nc2ccc(F)cc2)nc2c(sc3ccccc32)c1=O | inconclusive: 39.8 µM [activator, single point] |
| Cc1ccccc1C(=O)Nc1nnc(S(=O)(=O)N(C)Cc2ccccc2)s1 | inconclusive: 28.2 µM [activator, single point] |

| SMILES | Potency |
| --- | --- |
| CS(=O)(=O)c1ccc(S(=O)CC(=O)OCc2ccccc2)c([N+](=O)[O-])c1 (stereo not drawn) | inactive |
| O=C(NCc1cccs1)c1ccc2c(=O)n3nc(Nc4ccccc4)sc3nc2c1 | inconclusive: 35.5 µM [activator, single point] |
| CCc1cc2cc(C)ccc2nc1SCC(=O)Nc1cc(C)on1 | inconclusive: 39.8 µM [activator, single point] |
| CCN(CC)c1ccc(NC(=O)C2CCN(c3nnc(-n4cccc4)s3)CC2)c(C)c1 | inactive |
| Nc1cc(=O)[nH]n1C1CCCCC1 | inactive |
| Cc1c(C(=O)NCc2ccc(Cl)cc2)oc2ccc3c(c12)C(=O)CC(C)(C)O3 | inactive |
| COc1cc2cc(CNc3ccccc3)c(=O)n(CC(=O)Nc3cccc(Cl)c3C)c2cc1OC | inconclusive: 15.8 µM [activator, partial curve] |
| Cc1nc(SCC(=O)Nc2ccc(C)c(F)c2)c2oc3ccccc3c2n1 | inconclusive: 20 µM [activator, partial curve] |
| CC(C)(C)NC(=O)COC(=O)c1snc(C(=O)NC2CCCCC2)c1N | inactive |
| CCCS(=O)(=O)c1nc(S(=O)(=O)c2ccc(C)cc2)c(N2CCN(CC)CC2)s1 | inconclusive: 17.8 µM [activator, partial curve] |
| COc1ccc(C2C(C(=O)c3ccc(C)o3)=C(O)C(=O)N2Cc2cccnc2)cc1 (stereo not drawn) | inconclusive: 22.4 µM [activator, partial curve] |
| Cc1ccc(C2/C(=C(\O)c3ccc4c(c3)OCCO4)C(=O)C(=O)N2CC2CCCO2)cc1 (stereo not drawn) | inconclusive: 25.1 µM [activator, partial curve] |
| Cc1ccc(S(=O)(=O)Nc2cccc(-c3ccc(N4CCC(C)CC4)nn3)c2)s1 | inactive |
| COc1ccc(OCC(=O)Nc2ccc(-c3nc4cc(C)cc(C)c4o3)cc2)cc1 | inconclusive: 39.8 µM [activator, single point] |
| CCCn1cc(S(=O)(=O)c2ccc(C)cc2)c(=O)c2cc(F)c(N3CCCC3)cc21 | inconclusive: 39.8 µM [activator, single point] |
| CCN(C(=O)c1cnc(NC(C)C)cc1C(F)(F)F)c1ccc(Cl)cc1 | inactive |
| CCOC(=O)c1cnc2cc(-c3ccc(OCC)cc3)nn2c1-c1ccccc1 | inconclusive: 39.8 µM [activator, single point] |
| O=C(COC(=O)c1ccc(NS(=O)(=O)c2cccs2)cc1)Nc1nc2c(F)c(F)c(F)cc2s1 | inactive |
| Cc1cc(C)c(NC(=O)CSc2ccc(-c3ccccn3)nn2)c(C)c1 | inconclusive: 28.2 µM [activator, single point] |
| Cc1ccc2nc(SCC(=O)NCC3CCCO3)c(C#N)cc2c1 (stereo not drawn) | inconclusive: 35.5 µM [activator, single point] |
| CCOC(=O)N1CCN(c2nc(SC)nc3sc4c(c23)CC(C)(C)OC4)CC1 | inconclusive: 39.8 µM [activator, single point] |
| COc1cccc(CC(=O)Nc2nc3c(s2)C(=O)CC(C)(C)C3)c1 | inconclusive: 39.8 µM [activator, single point] |
| CCCn1c(SCC(=O)NCc2ccccc2)nnc1-c1ccncc1 | inactive |

| SMILES | Potency |
| --- | --- |
| CCOC(=O)/C(C#N)=C/c1cc2ccccc2nc1N1CCCCC1 | active: 14.1 µM |
| Cc1cc(C)c2c(=O)cc(CSc3n[nH]c(C)n3)[nH]c2c1 | inactive |
| O=C(Nc1ccc(-c2nc3cc(Cl)ccc3o2)cc1)c1cc2ccccc2o1 | inconclusive: 4.47 µM [activator, single point] |
| O=[N+]([O-])c1ccc(-c2cn3c(n2)CCC3)cc1 | inconclusive: 25.1 µM [activator, partial curve] |
| COc1ccc(Cn2c(SCc3ccc(C(=O)NC(C)c4ccccc4)cc3)nc3cccnc32)cc1 (stereo not drawn) | inconclusive: 31.6 µM [activator, partial curve] |
| O=S(=O)(NCc1nc2cccnc2n1Cc1ccccc1Cl)c1ccc(F)c(Cl)c1 | inactive |
| COc1cc(NC(=O)CCCOc2cc(=O)n(C)c3ccccc23)cc(OC)c1OC | inactive |
| O=C(Nc1ccc([N+](=O)[O-])cc1)Nc1ccc(OC(F)F)c(Cl)c1 | inactive |
| O=C(Nc1ccc(F)cc1)Nc1sccc1-c1nc2ccccc2s1 | inconclusive: 25.1 µM [activator, partial curve] |
| OCC1(Cc2ccc(Cl)cc2)CCN(Cc2ccccc2F)CC1 | inactive |
| Cc1ccc(-n2c(SCc3ccccc3)nc3c([nH]c4ccccc43)c2=O)cc1 | inconclusive: 39.8 µM [activator, single point] |
| O=C(NCc1ccco1)C1CCCN(c2ncnc3c2nc2n3CCCCC2)C1 (stereo not drawn) | inactive |
| COc1ccc(-c2nnc(SCC(=O)Nc3cccc(F)c3)s2)cc1 | inconclusive: 25.1 µM [activator, partial curve] |
| CCSC1=N/C(=C\c2ccc3c(c2)OCO3)C(=O)S1 | inactive |
| Cc1ccc(CNC(=O)CCCn2nc(C)n3ccnc3c2=O)cc1 | active: 15.8 µM |
| CC(=O)c1ccc(NC(=O)c2ccc(CSc3ccccc3)o2)cc1 | inconclusive: 22.4 µM [activator, partial curve] |
| COCCNC(=O)NC(=O)COC(=O)C12CC3CC(CC(NC(C)=O)(C3)C1)C2 | inconclusive: 2.24 µM [activator, partial curve] |
| CC(C)c1ccc(NC(=O)CSc2ncc3c(n2)-c2ccccc2N(C)S3(=O)=O)cc1 | inconclusive: 35.5 µM [activator, single point] |
| Cc1c(NC(=O)c2nc3ccccc3n(C)c2=O)cccc1[N+](=O)[O-] | inconclusive: 17.8 µM [activator, partial curve] |
| CCC1(C)Cc2c(sc3nc(SC)n(Cc4ccccc4)c(=O)c23)CO1 (stereo not drawn) | inactive |
| COC(=O)c1sc(NC(=S)NNC(=O)c2c(Br)c(C)nn2C)c(C(=O)OC)c1C | active: 25.1 µM |
| Cc1oc(-c2ccc(Cl)cc2)nc1CN1CCC(C(=O)NCc2ccco2)CC1 | inactive |
